# Measurements reported in the supplement of paper PMC9446081.
# The campaign covered roughly 39,000 compounds. About 220 (0.56%) showed activity. The list shows a part of the results.
# System: Escherichia coli K-12 BW25113
# Assay: relative growth (OD600 normalised to plate interquartile mean) (fraction); higher = less growth inhibition, active = 0.2 or less
# Conditions: 50 µM; LB; incubation time: overnight (16-24 h)
# 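Note: static incubation at 37 °C against the wild-type strain, values averaged over two biological replicates.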
row,SMILES,relative growth
1,COc1ccccc1S(=O)(=O)N(C)C[C@@H]1OCc2cnnn2CCCC(=O)N([C@H](C)CO)C[C@@H]1C,inactive: 1
2,CS(=O)(=O)N1CCc2c(-c3cnc(N)nc3)nc(N3CCOCC3)nc21,inactive: 1.02
3,C[C@H]1CN([C@@H](C)CO)C(=O)c2cccc(NS(=O)(=O)c3cn(C)cn3)c2O[C@H]1CN(C)S(=O)(=O)c1cccs1,inactive: 1.01
4,Cc1noc(C)c1NC(=O)N(C)C[C@@H]1OCCCC[C@@H](C)Oc2ccc(NC(=O)Nc3ccc(F)cc3)cc2C(=O)N([C@H](C)CO)C[C@@H]1C,inactive: 0.99
5,COc1ccc(C(=O)Nc2cccc(CN3C(=O)[C@]4(O[C@H](CC(=O)N(CCO)Cc5ccccc5)[C@@H]([Si](C)(C)c5ccc(OC)cc5)[C@@H]4C)c4ccccc43)c2)cc1,inactive: 0.854
6,COc1ccc(S(=O)(=O)N2C[C@H](O)COC[C@@H]3O[C@@H](CC(=O)NCCCN4CCOCC4)CC[C@H]32)cc1,inactive: 0.999
7,Cc1ccc(S(=O)(=O)N(C)C[C@@H]2Oc3ccc(NS(=O)(=O)c4ccc(F)cc4)cc3C(=O)N([C@H](C)CO)C[C@H]2C)cc1,inactive: 1.01
8,O=C(C[C@@H]1CC[C@@H]2[C@H](COC[C@H](O)CN2S(=O)(=O)c2cccc(F)c2)O1)NCc1ccncn1,inactive: 0.997
9,C[C@@H]1CC[C@@]2(OC1)O[C@H]1C[C@H]3[C@H]4C[C@@H](O)[C@H]5C[C@@H](O[C@@H]6O[C@H](CO)[C@H](O[C@@H]7O[C@H](CO)[C@@H](O)[C@H](O[C@@H]8OC[C@@H](O)[C@H](O)[C@H]8O)[C@H]7O[C@@H]7O[C@H](CO)[C@@H](O)[C@H](O)[C@H]7O)[C@H](O)[C@H]6O)CC[C@]5(C)[C@@H]4CC[C@]3(C)[C@H]1[C@@H]2C,inactive: 0.967
10,COc1ccc(S(=O)(=O)Nc2ccc3c(c2)C(=O)N([C@@H](C)CO)C[C@H](C)[C@H](CN(C)Cc2ccc(C(F)(F)F)cc2)OCCCC[C@H](C)O3)cc1,inactive: 1.05
11,C[C@H]1CN([C@@H](C)CO)C(=O)c2cc(NS(=O)(=O)c3ccc(Cl)cc3)ccc2O[C@H]1CN(C)S(=O)(=O)c1cn(C)cn1,inactive: 0.986
12,C[C@H]1CN([C@@H](C)CO)C(=O)c2cccc(NC(=O)c3ccncc3)c2O[C@H]1CN(C)S(=O)(=O)c1cn(C)cn1,inactive: 0.985
13,C[C@@H]1CCCCO[C@H](CN(C)CC2CCCCC2)[C@H](C)CN([C@H](C)CO)C(=O)c2cc(NC(=O)Nc3cccc4ccccc34)ccc2O1,inactive: 0.948
14,Cc1ccc(S(=O)(=O)N(C)C[C@@H]2Oc3c(NS(=O)(=O)c4cccs4)cccc3C(=O)N([C@@H](C)CO)C[C@@H]2C)cc1,inactive: 1.03
15,O=C(C[C@@H]1CC[C@@H]2[C@H](COC[C@@H](O)CN2C(=O)c2ccccc2F)O1)N1CCN(c2ccccc2)CC1,inactive: 0.989
16,C[C@@H]1CN([C@H](C)CO)C(=O)c2c(c3ccccc3n2C)-c2ccccc2CO[C@H]1CN(C)C(=O)[C@H](C)c1ccccc1,inactive: 1.01
17,CCCC(CCC)C(=O)[O-].[Na+],inactive: 0.979
18,Cc1ccc(S(=O)(=O)Nc2ccc3c(c2)CC(=O)N([C@@H](C)CO)C[C@@H](C)[C@H](CN(C)C(=O)Nc2ccc(C(F)(F)F)cc2)O3)cc1,inactive: 0.992
19,COc1ccc(S(=O)(=O)Nc2ccc3c(c2)CC(=O)N([C@@H](C)CO)C[C@@H](C)[C@H](CN(C)C(=O)NC(C)C)O3)cc1,inactive: 1

row,SMILES,relative growth
1,COCC(=O)Nc1ccc2c(c1)C(=O)N(C)[C@@H]1CC[C@@H](CC(=O)NCc3ccc(OC)cc3)O[C@H]1CO2,inactive: 0.975
2,CCC(=O)NCc1nccc(N(C)C)n1,inactive: 1.02
3,C[C@@H]1CN([C@@H](C)CO)C(=O)c2cccc(NC(=O)c3cnccn3)c2O[C@@H]1CN(C)S(=O)(=O)c1cn(C)cn1,inactive: 1.01
4,CO[C@@H]1CN(C)C(=O)c2ccc(NS(=O)(=O)c3cn(C)cn3)cc2OC[C@@H](C)N(CC2CC2)C[C@H]1C,inactive: 1
5,C[C@@H]1CN([C@H](C)CO)C(=O)c2cc(NS(=O)(=O)c3ccccc3)ccc2O[C@H]1CN(C)Cc1ccc(Oc2ccccc2)cc1,inactive: 0.992
6,Cl.Cl.O=C1c2c(O)ccc(O)c2C(=O)c2c(NCCNCCO)ccc(NCCNCCO)c21,inactive: 1.09
7,C[C@H](CO)N1C[C@H](C)[C@@H](CN(C)S(=O)(=O)c2ccc(Cl)cc2)Oc2ccc(NC(=O)C3CC3)cc2CC1=O,inactive: 1
8,Cc1ccc(S(=O)(=O)Nc2ccc3c(c2)C(=O)N([C@@H](C)CO)C[C@@H](C)[C@@H](CN(C)S(=O)(=O)c2c(C)noc2C)O3)cc1,inactive: 1.01
9,C[C@@H]1CCCCO[C@@H](CN(C)CC2CC2)[C@@H](C)CN([C@H](C)CO)C(=O)c2cc(NC(=O)CCCCCC(=O)Nc3ccccc3N)ccc2O1,inactive: 0.849
10,C[C@H](CO)N1C[C@H](C)[C@@H](CN(C)S(=O)(=O)c2cn(C)cn2)Oc2ccc(NC(=O)Nc3ccc(F)cc3)cc2CC1=O,inactive: 0.986
11,C[C@@H]1CN([C@H](C)CO)C(=O)Cc2cc(NS(=O)(=O)c3ccccc3)ccc2O[C@@H]1CN(C)CC1CC1,inactive: 0.995
12,C=CC[C@@H](CC(=O)N(CCO)Cc1ccccc1)C(=O)N[C@@H](COC(=O)[C@H](CC=C)Cc1ccc(F)cc1)Cc1c[nH]c2ccccc12,inactive: 0.843
13,C[C@@H]1CN([C@H](C)CO)S(=O)(=O)c2ccc(C#Cc3cccnc3)cc2O[C@H]1CN(C)C(=O)Nc1ccc2c(c1)OCO2,inactive: 1.01
14,COc1ccc(NC(=O)Nc2ccc3c(c2)C(=O)N([C@@H](C)CO)C[C@@H](C)[C@@H](CN(C)Cc2ccccc2)OCCCC[C@H](C)O3)cc1,inactive: 0.929
15,C[C@@H]1CCCCO[C@@H](CN(C)C(=O)Cc2ccccc2)[C@@H](C)CN([C@H](C)CO)C(=O)c2cc(NC(=O)C3CCCCC3)ccc2O1,inactive: 1.04
16,C[C@H](CO)N1C[C@H](C)[C@H](CN(C)Cc2ccc(Oc3ccccc3)cc2)Oc2ccc(NC(=O)C3CCCCC3)cc2C1=O,inactive: 0.998
17,C[C@@H]1CN([C@H](C)CO)S(=O)(=O)c2ccc(-c3cccc(F)c3)cc2O[C@H]1CN(C)S(C)(=O)=O,inactive: 1
18,NC[C@H](c1ccccc1)N1CCOCC1,inactive: 1
19,c1ccc2nc(C3=NCCN3)cnc2c1,inactive: 0.999

row,SMILES,relative growth
1,COc1ccc(NC(=O)Nc2ccc3c(c2)CC(=O)N([C@H](C)CO)C[C@H](C)[C@H](CN(C)Cc2ccc(-c4ccccc4)cc2)O3)cc1,inactive: 0.951
2,COc1ccc(S(=O)(=O)N(C)C[C@@H]2OCc3cnnn3CCCC(=O)N([C@H](C)CO)C[C@H]2C)cc1,inactive: 0.989
3,CCS(=O)(=O)NCC[C@@H]1CC[C@@H](NC(=O)C2CC2)[C@@H](CO)O1,inactive: 0.982
4,COc1cc2c(cc1OC)CN(C(=O)[C@@H]1[C@H]3C(=O)O[C@H](c4ccccc4)[C@H](c4ccccc4)N3[C@H](c3ccc(OCCO)cc3)[C@@]13C(=O)Nc1ccccc13)CC2,inactive: 1.06
5,C[C@H]1CN([C@@H](C)CO)C(=O)Cc2cc(NS(=O)(=O)c3cn(C)cn3)ccc2O[C@H]1CN(C)S(C)(=O)=O,inactive: 1
6,C[C@H](CO)N1C[C@H](C)[C@H](CN(C)C(=O)NC2CCCCC2)Oc2c(NC(=O)c3cnccn3)cccc2C1=O,inactive: 0.986
7,Cc1ccc(S(=O)(=O)Nc2ccc3c(c2)C(=O)N([C@H](C)CO)C[C@@H](C)[C@H](CN(C)C(=O)NC2CCCCC2)OCCCC[C@H](C)O3)cc1,inactive: 1.02
8,Cc1cc(C(=O)Nc2cccc3c2O[C@@H](CN(C)S(=O)(=O)c2cccs2)[C@@H](C)CN([C@H](C)CO)C3=O)n(C)n1,inactive: 1.01
9,COc1ccc(CN2C[C@@H](C)[C@@H](OC)CN(C)C(=O)c3cc(NC(=O)c4nc5ccccc5s4)ccc3OC[C@H]2C)cc1,inactive: 1.02
10,CS(=O)(=O)Nc1ccc2c(c1)[C@H]1C[C@@H](CC(=O)NCc3ccc(-c4ccccc4)cc3)O[C@@H](CO)[C@H]1O2,inactive: 0.962
11,C[C@H]1CCCCO[C@H](CN(C)C(=O)Nc2ccc(F)cc2)[C@@H](C)CN([C@@H](C)CO)C(=O)c2cc(NC(=O)NC3CCCCC3)ccc2O1,inactive: 1.01
12,C[C@@H]1CN([C@H](C)CO)C(=O)Cc2cc(NC(=O)Cc3ccccc3)ccc2O[C@@H]1CN(C)C(=O)Nc1cccc2ccccc12,inactive: 0.986
13,C[C@H]1CCCCO[C@@H](CN(C)Cc2ccc(C(F)(F)F)cc2)[C@@H](C)CN([C@@H](C)CO)C(=O)c2cc(NC(=O)Cc3ccccc3)ccc2O1,inactive: 1.03
14,CC(C)NC(=O)N(C)C[C@@H]1OCCCC[C@H](C)Oc2ccc(NC(=O)Nc3ccc(C(F)(F)F)cc3)cc2C(=O)N([C@@H](C)CO)C[C@H]1C,inactive: 1.06
15,C[C@@H]1CCCCO[C@H](CN(C)S(=O)(=O)c2ccc(F)cc2)[C@@H](C)CN([C@H](C)CO)C(=O)c2cc(NS(=O)(=O)c3ccc(Cl)cc3)ccc2O1,inactive: 1.02
16,C[C@@H]1CN([C@H](C)CO)C(=O)CCCn2cc(nn2)CO[C@H]1CN(C)S(=O)(=O)c1ccccc1C#N,inactive: 1.01
17,C[C@@H]1CCCCO[C@@H](CN(C)C(=O)Nc2ccccc2)[C@H](C)CN([C@H](C)CO)C(=O)c2cc(NC(=O)Cc3ccccc3)ccc2O1,inactive: 1.01
18,COc1ccc2c3c([nH]c2c1)[C@@H](CO)N(C[C@]13CN(CC2CCCCC2)C1)C(=O)Nc1cccc(c1)F,inactive: 0.964
